Laboratory results taken from publication PMC6919601, “Identification of Plasmodium dipeptidyl aminopeptidase allosteric inhibitors by high throughput screening” (PLoS ONE, 2019).
The whole screen tested about 110,000 compounds, of which about 230 (0.21%) showed an effect of 50% or more. Some of the results follow.

molecular target: DPAP1 (Plasmodium falciparum, UniProt Q8IIJ9); test: primary screen, percent inhibition; read by cleavage of a fluorogenic dipeptide substrate; higher = more effect of the substance; design: species or system P. falciparum D10 trophozoite lysates; single well
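Further: 30 min substrate incubation versus DMSO and 10 µM JCP410 controls.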

Chain of DPAP1 (Q8IIJ9 whole entry, looked up): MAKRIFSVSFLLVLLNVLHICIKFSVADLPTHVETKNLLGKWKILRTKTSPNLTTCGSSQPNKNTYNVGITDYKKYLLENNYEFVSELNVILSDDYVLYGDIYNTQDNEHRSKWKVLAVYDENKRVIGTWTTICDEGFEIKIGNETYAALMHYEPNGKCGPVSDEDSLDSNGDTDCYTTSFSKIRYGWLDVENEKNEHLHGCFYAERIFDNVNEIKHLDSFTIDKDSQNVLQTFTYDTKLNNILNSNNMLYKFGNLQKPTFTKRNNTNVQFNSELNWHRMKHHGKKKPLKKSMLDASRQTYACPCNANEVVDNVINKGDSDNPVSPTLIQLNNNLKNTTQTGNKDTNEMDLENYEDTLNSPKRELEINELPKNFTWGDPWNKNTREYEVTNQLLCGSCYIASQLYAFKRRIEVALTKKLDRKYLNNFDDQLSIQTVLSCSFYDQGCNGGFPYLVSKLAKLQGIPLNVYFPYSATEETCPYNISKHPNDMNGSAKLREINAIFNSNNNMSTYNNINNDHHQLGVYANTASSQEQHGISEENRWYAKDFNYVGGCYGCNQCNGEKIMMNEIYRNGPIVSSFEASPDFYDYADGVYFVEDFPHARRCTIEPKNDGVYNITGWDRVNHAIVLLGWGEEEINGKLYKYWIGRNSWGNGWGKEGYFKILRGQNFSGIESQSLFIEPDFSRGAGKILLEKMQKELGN

Structure (SMILES)	% Inhibition @ 10 uM
CN(C(=O)COc1ccc([N+](=O)[O-])cc1)C1CCCCC1	0.634%
C#CCOc1ccc(/C=C2/NC(=O)NC2=O)cc1	-3.06%
CCOC(=O)c1c(S(=O)(=O)NCc2ccc(F)cc2)c(C)n(C)c1C	4.03%
CCOC(=O)N1CCC(/N=c2/c(N3CCN(Cc4ccccc4)CC3)c(O)c2=O)CC1	-1.44%
COc1cc(/C=C2/SC(=O)N(CC(=O)N3CCOCC3)C2=O)ccc1OCc1ccncc1	2.65%
O=C1NC(=O)/C(=C\c2cccc([N+](=O)[O-])c2)S1	-5.26%
CSc1ccc(CCNC(=O)CC(C)n2nc(C)cc2C)cc1 (stereo not drawn)	1.46%
O=c1c(=O)n(Cc2ccccc2F)ccn1Cc1ccccc1	0.658%
CC(=O)Nc1ccc(C(=O)Nc2cccc(C(F)(F)F)c2)cc1	-1.98%
Cc1ccc(-c2nc(-n3nc(C)cc3C)c3ccccc3n2)cc1	3.18%
COc1ccc(Nc2cc(C)nc3ccccc23)cc1	3.04%
O=S(=O)(c1ccc2[nH]c3c(c2c1)CCCC3)N1CCCCC1	2.47%
COC(=O)c1ccc(NC(=O)CCCC(=O)O)cc1	-6.29%
O=C(O)CNC(=O)/C(=C/c1ccccc1)NC(=O)c1cccc(Br)c1	0.458%
COc1ccc(CCNC(=O)c2c(N)no[n+]2[O-])cc1OC	-2.28%
Cc1ccccc1NC(=O)c1ccccc1Br	0.62%
COc1ccc2[nH]c3c(=O)n(CCCCCC(=O)NCc4cccnc4)c(=S)[nH]c3c2c1	-0.431%
OCC1CCCN1Cc1ccccc1F (stereo not drawn)	1.08%
O=C(CCc1ccccc1)NCc1ccccn1	-15.4%
O=C(Nc1ccc(S(=O)(=O)N2CCCCCC2)cc1)c1ccc(F)cc1	4.12%
CCOc1ccc(/N=C2/S/C(=C\c3ccc(O)c(OC)c3)C(=O)N2CC)cc1	5.28%
CC1=C(c2ccccc2)SC2=NCCN21	4.18%
COc1ccc(CCNC(=O)c2ccccc2OC)cc1OC	0.147%
CC1=C(C(=O)OCCOc2ccccc2)C(c2ccc(O)cc2)C2=C(O)CC(C)(C)CC2=N1 (stereo not drawn)	21.6%
CC1(C)CNC(=O)c2sc(N3CCOCC3)nc2C1	5.2%
CCOc1cc(C#N)c(NC(=O)c2ccc(OC)c(OC)c2)cc1OCC	1.89%

Structure (SMILES)	% Inhibition @ 10 uM
CCN(CC)S(=O)(=O)c1ccc(NC(=O)Cc2cccc3ccccc23)cc1	-2.76%
CN(CCCNC(=O)Cn1c(=O)c2cccn2c2cccnc21)Cc1ccccc1	-2.97%
Nc1ccc2oc(-c3cc(Cl)ccc3Cl)nc2c1	6.09%
NC(=O)CCC1COc2ccccc2O1 (stereo not drawn)	-7.24%
CC(NC(=O)CN1CCN(C)CC1)C1CC2CCC1C2 (stereo not drawn)	0.392%
COc1cc(Br)cc(CN2CC(C)OC(C)C2)c1O (stereo not drawn)	-3.42%
O=C(Nc1ccccc1F)c1cccc(F)c1	0.467%
COc1ccc(C2CC(c3ccc(C)cc3)=NN2C(=O)CCCC(=O)O)cc1OC (stereo not drawn)	-13%
O=C(NCCc1ccc(Cl)cc1)C(=O)NCc1ccc2c(c1)OCO2	1.64%
Cc1ccccc1-c1n[nH]c(SCc2cc(=O)n3nc(C4CC4)sc3n2)n1	-6.45%
CC(C)CN(CCNC(=O)C1CCCN(S(=O)(=O)N2CCOCC2)C1)CC(C)C (stereo not drawn)	4.83%
FC(F)(F)c1cccc(CN2CCN(c3ccccn3)CC2)c1	-0.294%
O=C(O)COc1ccc(C=C2C(=O)c3ccccc3C2=O)cc1Cl	-3.41%
O=C1CSC(=O)N1Cc1ccc2ccccc2c1	1.62%
O=C1c2ccccc2C(=O)N1c1ccccc1C(F)(F)F	-1.98%
CCOc1ccccc1N1CCN(C(=O)COc2ccc(Cl)cc2C)CC1	-3.39%
O=C(c1cc2cc3ccc(Cl)cc3nc2o1)N1CCN(Cc2ccc3c(c2)OCO3)CC1	-9.18%
CCc1ccccc1-n1nnc(-c2nc(-c3ccc(Cl)cc3)no2)c1N	2.19%
CN1CCC(N(C)Cc2ccc(F)cc2F)CC1	-4.5%
COc1cc2c(cc1OC)C(=O)Cc1ccccc1S2	-12.4%
CC1CCC(NC(=O)c2cc(C3CC3)[nH]n2)CC1 (stereo not drawn)	0.181%
CC(C)(C)NC(=O)[C@@H]1CCCN1C(=O)OC(C)(C)C	3.05%
COc1ccc(CNC(=O)c2cc(=O)c3ccccc3o2)cc1	5.06%
Cc1cc(/C=C2\NC(=O)NC2=O)c(C)n1-c1ccccc1F	-11.6%
O=C(Nc1ncc(Br)cc1Br)c1cccc2ccccc12	-4.21%
